Experimental data reported in PubChem BioAssay AID652104 (National Center for Advancing Translational Sciences (NCATS), 2013).
Hit rate of the full screen: of about 410,000 compounds, about 7,200 (1.8%) were called active. Inconclusive means that the source gave no clear call. Such entries were picked first, then a sample of the others. The call rests on the fitted dose curve; in most records, active means well fitted activation curve with a large enough effect; inconclusive means small, poorly fitted or top-dose-only effect, or another doubt; inactive means no such curve, though single readings can be large or run the other way. No potency is given beside an inconclusive call; the fits are too rough.

Assay: qHTS of TDP-43 Inhibitors; further: nearly all actives have a fitted effect of over 50% in size; on growth rescue (activation): % of control where 0% means no effect
Conditions: TDP-43 expressing yeast growth rescue, BacTiter-Glo, 24 h; growth rescue (activation): at 46.1 µM (top of the series) unless noted
Method in brief: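 Yeast expressing TDP-43 (pregrown in raffinose, seeded at OD600=0.02 in galactose medium) exposed to compounds 24 hr at 30 deg C. Growth read by BacTiter-Glo luminescence; rescue of toxicity appears as increased signal.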
Potency means the concentration at half of the fitted maximal effect; tags describe the fitted curve by direction and shape.

Compound | Potency | growth rescue (activation)
COc1ccc(-c2ocnc2C(=O)Nc2ccc(N3CCOCC3)cc2N2CCOCC2)cc1OC | inconclusive [activator, single point] | 
COc1cccc(/C=C2\SC(=S)N(NS(=O)(=O)c3ccccc3)C2=O)c1OC | inconclusive [activator, partial curve, poor fit] | 
C=CCc1cccc2cc(-c3nc4ccc(C)cc4[nH]3)c(=O)oc12 | inconclusive [activator, partial curve, poor fit] | 
CCOC(=O)c1[nH]c2ccccc2c1NC(=O)c1ccco1 | inconclusive [activator, partial curve] | 
CC(=O)NC(NC(C)=O)c1ccc(N(C)C)cc1 | inconclusive [activator, single point] | 
COCC(=O)n1nc(-c2ccco2)nc1NCc1ccccc1Cl |  | inactive: 17%
CN(C)CCCNC(=S)NCC(c1ccc(Cl)cc1Cl)c1c[nH]c2ccccc12 (stereo not given) | inconclusive [activator, partial curve] | 
O=C1c2ccccc2CCC1C(O)c1ccccn1 (stereo not given) | inconclusive [activator, single point] | 
O=C(CCCCl)NC(=S)Nc1cc(C(F)(F)F)ccc1N1CCOCC1 | active: 12.6 µM | 
Cc1cccc(N2CCN(C(=O)CS(=O)(=O)c3cccc4nsnc34)CC2)c1C | inconclusive [activator, single point] | 
CSc1nc2nccc(/C=C\c3ccccc3)n2n1 | inconclusive [activator, single point] | 
Cc1ccc(CNc2ccc(-c3nc(-c4ccncc4)no3)cc2[N+](=O)[O-])cc1 |  | inactive: -19.9%
COc1ccc(-n2ccnc2SCC(=O)Nc2ccc3c(c2)OCO3)cc1 | inconclusive [activator, single point] | 
Cc1cc(OCC(=O)N(C(C)C)C(C)C)cc(C)c1Br | inconclusive [activator, partial curve] | 
CC(C)c1ccc(NC(=O)Cn2c(=O)n(CC3CCC(C(=O)NCCc4ccccc4)CC3)c(=O)c3ccccc32)cc1 (stereo not given) |  | inactive: 13.5%
COC(=O)c1ccc(S(=O)(=O)N2CCN(C(c3ccccc3)c3ccccc3)CC2)n1C |  | inactive: 6.63%
COC(=O)c1ccc(Cl)cc1NC(=O)NCCc1c(C)nn(C)c1C | inconclusive [activator, partial curve] | 
Cn1ncc([N+](=O)[O-])c1C(=O)Nc1cc(Cl)ccc1Cl | inconclusive [activator, partial curve] | 
COc1ccccc1CNC(=O)Cn1c(=O)nc(-c2ccccc2F)c2cc(Cl)ccc21 |  | inactive: 18.7%
COc1ccc(C(=O)COC(=O)c2cc([N+](=O)[O-])ccc2N2CCOCC2)c(OC)c1 | inconclusive [activator, single point] | 
COc1ccc(OC)c(C(=O)CC2(O)C(=O)N(Cc3ccccc3C)c3ccccc32)c1 (stereo not given) | inconclusive [activator, single point] | 
Cn1c(Sc2nc3ccccc3n2C)nc2ccccc21 | inconclusive [activator, partial curve] | 
N#Cc1ccsc1NC(=O)CN(Cc1ccccc1)Cc1ccccc1 | inconclusive [activator, partial curve] | 

Compound | Potency | growth rescue (activation)
O=c1c2ccccc2oc2cc(Br)ccc12 |  | inactive: 9.49%
CCc1ccc2nc(N(CCN(CC)CC)C(=O)c3cccs3)sc2c1 |  | inactive: 3.33%
CCC(=O)c1cn(CCOc2ccccc2OC)c2ccccc12 | inconclusive [activator, single point] | 
COc1cccc(C(NC(C)=O)c2nc(-c3ccc(C)c(C)c3)cs2)c1 (stereo not given) |  | inactive: 0%
CCc1nc2c(OCc3cccc(Cl)c3)cccn2c1N(C)C(=O)Nc1ccccc1OC |  | inconclusive: 24% [activator]
Cc1[nH]c2ccccc2c1-c1csc(NC(=O)CSCCO)n1 |  | inactive: -3.83%
CCc1ccccc1NS(=O)(=O)c1ccc2[nH]cc(C(=O)N(CC(C)C)CC(C)C)c(=O)c2c1 | inconclusive [activator, full curve] | 
FC(F)(F)c1cnc2c(-c3ccccc3)n[nH]c2c1 | inconclusive [activator, single point] | 
C/C(Cl)=C\Cn1c(O)c(N=NC(N)=S)c2ccccc21 | active: 17.8 µM | 
CCCCOC(=O)c1cc(=O)[nH]c2ccccc12 | inconclusive [activator, single point] | 
COc1cc(Nc2nc(SCc3ccc(Cl)cc3)nc3ccccc23)cc(OC)c1 | inconclusive [activator, partial curve, poor fit] | 
Cc1cc(C)c(C#N)c(SCC(O)COc2ccc(Br)cc2)n1 (stereo not given) | inconclusive [activator, single point] | 
C=CCC(C)(NCc1ccccc1)c1ccc(C)cc1 (stereo not given) |  | inactive: 11.6%
Fc1ccc(CSc2nnc(-c3cccs3)o2)cc1 | inconclusive [activator, single point] | 
O=C(Nc1ccnn1C1CCN(CC2CC=CCC2)CC1)c1ccccc1 (stereo not given) |  | inactive: -12.4%
C=CCOc1ccc(/C=N\NC(N)=S)cc1 | inconclusive [activator, single point] | 
CC(=O)N1N=C(c2cccc([N+](=O)[O-])c2)OC1c1ccccc1Cl (stereo not given) | active: 22.4 µM | 
Cc1onc(-c2c(F)cccc2Cl)c1C(=O)Nc1ccccc1N1CCOCC1 | inconclusive [activator, single point] | 
COc1ccc2c(c1)c(=O)oc1cc(OCC(=O)N3CCCC(C)C3)ccc12 (stereo not given) | active: 25.1 µM | 
CC1Cc2cc(S(=O)(=O)N3CCCCC3)ccc2N1C(=O)C1CCC1 (stereo not given) | inconclusive [activator, partial curve] | 
COc1cc(C(=O)Nc2ccc(NC(=O)c3ccc(C(C)(C)C)cc3)cc2)cc(OC)c1OC | inconclusive [activator, partial curve] | 
O=C(COCc1cc(-c2cccs2)on1)N1CCN(c2ccccc2)CC1 | inconclusive [activator, partial curve] | 
